{"source": "PubChem BioAssay AID445", "about": "(National Center for Advancing Translational Sciences (NCATS), 2006)", "note": "Among all 110,000 compounds or so, about 40 (0.04%) were called active. The shares of active, inactive and inconclusive entries below differ from those in the screen. The call rests on the fitted dose curve; in most records, active means well fitted curve in the direction sought with a large enough effect in the signal ratio (not every such curve was filed as active); inconclusive means small, poorly fitted or top-dose-only effect, or a change in a side signal; inactive means flat fitted curve, though single readings scatter; the % refers to the signal ratio. A potency beside an inconclusive call is a rough fit, not a confirmed value. Potency means the concentration at half of the fitted maximal effect."}
{"test": "IkB Signaling;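 on IkBa stabilization activation: 0% = basal untreated cells and 100% = reference inhibitor full response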", "conditions": "ABC-DLBCL IkBa-CBG/CBR dual luciferase ratio (green luciferase fused to IkBa over red control in OCI-Ly3 lymphoma cells), 4 h; IkBa stabilization activation: at 57.1 µM (top of the series), scaled: untreated 0%, proteasome inhibitor 100% unless noted", "summary_of_the_method": "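In this assay, an IκBα–CBG68 fusion accumulates when IKK-driven degradation is blocked; native CBR normalizes for cell number. OCI-Ly3 cells were treated 4 h with compound and doxycycline, then green and red light read after Chroma-Glo addition.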"}
{"smiles": "Cc1cc(Cl)ccc1NS(=O)(=O)c1c(C(=O)N2CCC(C)CC2)c(C)n(C)c1C", "IkBa stabilization activation": "inconclusive: 2.74% [signal inhibitor]"}
{"smiles": "CC1CCCN(c2nc3c(-c4ccc(Cl)cc4)nnn3c3ccccc23)C1", "note": "(stereo not given)", "Potency": "inconclusive: 7.94 µM [signal inhibitor]"}
{"smiles": "N#Cc1c(N)sc(=S)c2c1CCN(Cc1ccccc1)C2", "Potency": "inconclusive: 25.1 µM [rising, partial curve]"}
{"smiles": "COc1ccc2oc(=O)c(-c3nnc(-c4ccc(C)cc4)o3)cc2c1", "Potency": "inconclusive: 39.8 µM [signal inhibitor]"}
{"smiles": "CCN(CC)S(=O)(=O)c1ccc2c(c1)N(CC(=O)NCc1ccccc1)C(=O)C1CCCCN21", "note": "(stereo not given)", "IkBa stabilization activation": "inconclusive: -1.2% [signal inhibitor]"}
{"smiles": "Cc1cc2c(cc1S(=O)(=O)Nc1ccc(OC(F)(F)F)cc1)OCC(=O)N2", "IkBa stabilization activation": "inconclusive: 1.24% [signal inhibitor]"}
{"smiles": "COc1cc(-c2nnc(SCC(=O)c3cc(C)n(CC4CCCO4)c3C)o2)cc(OC)c1OC", "note": "(stereo not given)", "IkBa stabilization activation": "inconclusive: 2.44% [signal inhibitor]"}
{"smiles": "CCCCCN=Cc1c(C)[nH]n(-c2nc3ccccc3s2)c1=O", "Potency": "inconclusive: 7.94 µM [signal inhibitor, partial curve]"}
{"smiles": "O=C(c1ccc2c(c1)N(Cc1ccccc1F)C(=O)c1ccccc1S2(=O)=O)N1CCN(c2ccccn2)CC1", "IkBa stabilization activation": "inconclusive: -1.52% [signal inhibitor]"}
{"smiles": "Clc1ccc2nc(NC3=NCN(CCN4CCOCC4)CN3)nc(-c3ccccc3)c2c1", "IkBa stabilization activation": "inactive: -1.44%"}
{"smiles": "OCCCN1c2ccccc2Nc2nnc(-c3ccccc3)cc21", "IkBa stabilization activation": "inconclusive: 1.07% [signal inhibitor]"}
{"smiles": "Cc1ccccc1NC(=O)c1c(C)oc2ccc(O)c(CN3CCOCC3)c12", "IkBa stabilization activation": "inconclusive: -1.62% [signal inhibitor]"}
{"smiles": "O=C(c1noc2c1CCc1ccccc1-2)N1CCOCC1", "IkBa stabilization activation": "inactive: -1.44%"}
{"smiles": "CCc1ccc2[nH]c(=O)c(C(c3nnnn3CCOC)N3CCN(c4ccc(F)cc4)CC3)cc2c1", "note": "(stereo not given)", "IkBa stabilization activation": "inconclusive: 7.84% [signal inhibitor]"}
{"smiles": "Fc1ccc(C(c2ccc(F)cc2)N2CCN(C/C=C\\c3ccccc3)CC2)cc1", "IkBa stabilization activation": "inconclusive: 0.694% [signal inhibitor]"}
{"smiles": "Cc1ccc(N(CC(=O)Nc2ccc(Cl)cc2)S(=O)(=O)c2cccc3nonc23)cc1", "IkBa stabilization activation": "inconclusive: 11.8% [signal inhibitor]"}
{"smiles": "CC(C)CN1CCCC2(CCN(C(=O)c3ccco3)CC2)C1", "IkBa stabilization activation": "inactive: 0.988% [at 11.4 µM, scaled: untreated 0%, proteasome inhibitor 100%]"}
{"smiles": "CN1C(C(=O)Nc2ccc(OC(F)(F)F)cc2)=CC(c2cccs2)=NS1(=O)=O", "IkBa stabilization activation": "inactive: 1.33%"}
{"smiles": "O=C(c1cccc(F)c1)N1CCC[C@@]2(CCN(Cc3ccccc3)C2)C1", "IkBa stabilization activation": "inactive: 3.15% [at 11.4 µM, scaled: untreated 0%, proteasome inhibitor 100%]"}
{"smiles": "COc1ccc(-c2nc3c(c(SCC(=O)N4CCCCC4)n2)Cc2cc(Cl)ccc2O3)cc1", "IkBa stabilization activation": "inactive: 2.42%"}
{"smiles": "CC(C)Oc1cc(O)c2c(=O)c(-c3ccc(O)cc3)coc2c1", "IkBa stabilization activation": "inactive: -3.29%"}
{"smiles": "COc1cc(C(=O)NCc2nnc(SCC(=O)Nc3cc(C)cc(C)c3)o2)cc(OC)c1OC", "IkBa stabilization activation": "inconclusive: 12.4% [signal inhibitor]"}
{"smiles": "COc1ccc(-n2c(=O)[nH]c3cc(C(=O)NCCc4ccccc4)ccc3c2=O)cc1OC", "IkBa stabilization activation": "inconclusive: 1.79% [signal inhibitor]"}
{"smiles": "CCCS(=O)(=O)c1nc(S(=O)(=O)c2ccc(C)cc2)c(NC)s1", "IkBa stabilization activation": "inactive: -0.645%"}
{"smiles": "COc1ccc2c(CSc3nc4nc(C)cc(C)n4n3)cc(=O)oc2c1", "IkBa stabilization activation": "inactive: -0.923%"}
{"smiles": "O=C(COc1ccccc1)Nc1ccc2nc(SCC(=O)N3CCOCC3)sc2c1", "IkBa stabilization activation": "inconclusive: 1.49% [signal inhibitor]"}
{"smiles": "O=C(O)[C@H]1C[C@@H](CP(=O)(O)O)CCN1", "IkBa stabilization activation": "inactive: 0.358%"}
{"smiles": "CCOC(=O)CC(=O)CSc1nc(C)nc2c1oc1ccccc12", "IkBa stabilization activation": "inactive: 0.353%"}
{"smiles": "CCCn1c2ccccc2c2nnc(SCC(=O)Nc3cccc(C(C)=O)c3)nc21", "Potency": "inconclusive: 39.8 µM [signal inhibitor, single point]"}
{"smiles": "Cc1ccc(NC(=O)c2cnn3c2NC(c2ccccc2)=CC3c2ccccc2)cc1", "note": "(stereo not given)", "IkBa stabilization activation": "inconclusive: 2.78% [signal inhibitor]"}
{"smiles": "CCC(Sc1nnc(C)n2c1cc1occc12)C(=O)Nc1ccccc1OC", "note": "(stereo not given)", "IkBa stabilization activation": "inconclusive: 5.86% [signal inhibitor]"}
{"smiles": "CCN(Cc1ccccc1)C(=O)c1cnn(-c2ccc(F)cc2)c1-n1cccc1", "IkBa stabilization activation": "inconclusive: 0.819% [signal inhibitor]"}
{"smiles": "Nc1nc(CN2CCN(c3ccccn3)CC2)nc(Nc2ccc(Cl)cc2)n1", "IkBa stabilization activation": "inconclusive: 4.84% [signal inhibitor]"}
{"smiles": "COc1ccccc1CNC(=O)CSC1=Nc2ccccc2N=C(c2ccc(F)cc2)C1", "IkBa stabilization activation": "inconclusive: 4.14% [signal inhibitor]"}
{"smiles": "CCc1ccc(NS(=O)(=O)c2ccc3[nH]cc(C(=O)NCCCOC(C)C)c(=O)c3c2)cc1", "IkBa stabilization activation": "inactive: -0.616%"}
{"smiles": "CC(C)c1nc2ccc(C(=O)Nc3ccccc3F)cc2o1", "IkBa stabilization activation": "inconclusive: 12.3% [signal inhibitor]"}
{"smiles": "COc1cc(/C=C/c2ccccc2)oc(=O)c1", "IkBa stabilization activation": "inactive: 12.8%"}
{"smiles": "COc1ccc(NC(=O)CCCn2nc(C)c3sc4ccccc4c3c2=O)cc1", "IkBa stabilization activation": "inconclusive: -1.7% [signal inhibitor]"}
{"smiles": "O=c1c[n+](CCCC[n+]2cc(=O)o[nH]2)[nH]o1", "IkBa stabilization activation": "inactive: -1.12% [at 11.4 µM, scaled: untreated 0%, proteasome inhibitor 100%]"}
{"smiles": "COc1ccc(-c2nc(CSCC(=O)N3CCN(c4ccc(F)cc4)CC3)c(C)o2)cc1", "IkBa stabilization activation": "inconclusive: 3.15% [signal inhibitor]"}
{"smiles": "Fc1ccc(C2=CC(c3ccc(F)cc3)n3c(nc4ccccc43)N2)cc1", "note": "(stereo not given)", "Potency": "inconclusive: 25.1 µM [signal inhibitor]"}
{"smiles": "CCC(C)Nc1ncnc2c1cnn2-c1ccc(F)cc1", "note": "(stereo not given)", "Potency": "inconclusive: 15.8 µM [signal inhibitor, partial curve]"}
{"smiles": "O=C(OCc1c(Cl)nc2sccn12)c1cc2c(s1)CCCC2", "IkBa stabilization activation": "inactive: 0.728%"}
{"smiles": "Cc1cc(C)n(-c2nc(NC(C)(C)C)nc(NC(C)(C)C)n2)n1", "IkBa stabilization activation": "inactive: 4.47%"}
{"smiles": "N#CCC(=O)Nc1sc2c(c1C(N)=O)CCCC2", "IkBa stabilization activation": "inactive: 7.97%"}
{"smiles": "Cc1nn(C)cc1CNC(=O)c1cnn2c1NC(c1ccc(Br)cc1)CC2C(F)(F)F", "note": "(stereo not given)", "IkBa stabilization activation": "inconclusive: 13.5% [signal inhibitor]"}
{"smiles": "COc1cc(OC)c(NS(=O)(=O)c2ccc3oc(=O)c4ncn(C)c4c3c2)cc1Cl", "IkBa stabilization activation": "inactive: 1.43%"}
{"smiles": "O=C(CSc1nnc(-c2ccc(F)cc2)o1)N1CCCc2ccccc21", "IkBa stabilization activation": "inconclusive: 2.56% [signal inhibitor]"}
{"smiles": "O=C(CCC1N=C2c3ccccc3N=C(SCc3ccc(Cl)cc3)N2C1=O)N1CCN(c2ccccc2)CC1", "note": "(stereo not given)", "IkBa stabilization activation": "inconclusive: 1.13% [signal inhibitor]"}
{"smiles": "O=C(Nc1ccc2c(c1)OCO2)OCc1ccccc1", "IkBa stabilization activation": "inactive: 7.07%"}
{"smiles": "COc1ccc(C2C=C(c3ccc(Cl)c(Cl)c3)Nc3ncnn32)cc1", "note": "(stereo not given)", "IkBa stabilization activation": "inconclusive: 7.98% [signal inhibitor]"}
{"smiles": "COC(=O)c1sccc1S(=O)(=O)N(CC(=O)NCc1ccc(C)cc1)c1ccc(C)cc1", "IkBa stabilization activation": "inconclusive: -1.1% [signal inhibitor]"}
{"smiles": "COc1ccc(-n2c(SCC(=O)NCc3ccc(C)cc3)nc3n[nH]c(C)c3c2=N)cc1", "IkBa stabilization activation": "inactive: 0.155%"}
{"smiles": "Cc1cc2occ(CC(=O)NC3=NCCS3)c2cc1C(C)C", "IkBa stabilization activation": "inconclusive: 4.9% [signal inhibitor]"}
{"smiles": "Cc1csc(NC(=O)c2sc3nc(-c4cccs4)ccc3c2N)n1", "IkBa stabilization activation": "inconclusive: 2.43% [signal inhibitor]"}
{"smiles": "CCOC(=O)C1=C(CN2CCN(c3cccc(Cl)c3)CC2)NC(=O)NC1c1ccc(Cl)cc1", "note": "(stereo not given)", "IkBa stabilization activation": "inactive: -1.92%"}
{"smiles": "Cc1ccccc1OCCCN1C(=O)C(=O)c2cccc(C)c21", "Potency": "inconclusive: 39.8 µM [rising, single point]"}
{"smiles": "Cn1nnnc1SCC(=O)Nc1ccc(Oc2ccccc2)cc1", "IkBa stabilization activation": "inconclusive: 14.2% [signal inhibitor]"}
{"smiles": "CCNc1ncc2nc(C)c(=O)n(C[C@H]3CCCO3)c2n1", "IkBa stabilization activation": "inactive: -0.123% [at 11.4 µM, scaled: untreated 0%, proteasome inhibitor 100%]"}
{"smiles": "Cc1ccccc1-c1nnn(CC(=O)Nc2sc3c(c2C#N)CCC(C(C)(C)C)C3)n1", "note": "(stereo not given)", "IkBa stabilization activation": "inconclusive: -3.57% [signal inhibitor]"}
{"smiles": "Cc1ccc(C)c(SCC(=O)Nc2nnc(-c3ccccc3)o2)c1", "Potency": "inconclusive: 6.31 µM [rising, single point]"}
{"smiles": "Cc1ccc2ncc(C(=O)Nc3ccc(OC(F)(F)F)cc3)c(=O)n2c1", "IkBa stabilization activation": "inactive: -2.93%"}
{"smiles": "CCOC(=O)c1c(NC(=O)c2nc(S(C)(=O)=O)ncc2Cl)sc(C(C)=O)c1C", "IkBa stabilization activation": "inconclusive: -1.41% [signal inhibitor]"}
{"smiles": "O=C1CCCc2cc(S(=O)(=O)N3CCCC(C(=O)NCc4ccc(Cl)cc4)C3)ccc2N1", "note": "(stereo not given)", "IkBa stabilization activation": "inconclusive: 0.773% [signal inhibitor]"}
{"smiles": "COc1cc(OC)cc(-c2nc(-c3ccc4c(c3)[nH]c(=O)n4C)no2)c1", "IkBa stabilization activation": "inactive: 0.542%"}
{"smiles": "O=C(NCC(c1ccc(Cl)cc1)N1CCOCC1)c1ccccc1F", "note": "(stereo not given)", "IkBa stabilization activation": "inconclusive: -0.45% [signal inhibitor]"}
{"smiles": "Cc1ccc(C)c2[nH]c(=O)c(C(c3nnnn3Cc3ccco3)N3CCc4ccccc4C3)cc12", "note": "(stereo not given)", "IkBa stabilization activation": "inconclusive: 12%"}
{"smiles": "Cc1noc(C)c1-c1nc(NC2CCNCC2)c2ccccc2n1", "IkBa stabilization activation": "inactive: 0.421% [at 11.4 µM, scaled: untreated 0%, proteasome inhibitor 100%]"}
{"smiles": "CCOC(=O)CNC(=O)CSc1ncnc2c1cnn2-c1ccc(C)cc1", "IkBa stabilization activation": "inactive: -1.74%"}
{"smiles": "CCOc1cc(C2c3c(n[nH]c3C)C(=O)N2c2ccc(Br)cc2)ccc1O", "note": "(stereo not given)", "IkBa stabilization activation": "inconclusive: 7.34% [signal inhibitor]"}
